B1: PhoQ; a variant is named by its letters at X, in order, P23837 (parent)
chain: MKKLLRLFFPLSLRVRFLLATAAVVLVLSLAYGMVALIGYSVSFDKTTFRLLRGESNLFYTLAKWENNKLHVELPENIDKQSPTMTLIYDENGQLLWAQRDVPWLMKMIQPDWLKSNGFHEIEADVNDTSLLLSGDHSIQQQLQEVREDDDDAEMTHSVAVNVYPATSRMPKLTIVVVDTIPVELKSSYMVWSWFIYVLSANLLLVIPLLWVAAWWSLRPIEALAKEVRELEEHNRELLNPATTRELTSLVRNLNRLLKSERERYDKYRTTLTDLTHSLKTPLXXLQXXLRSLRSEKMSVSDAEPVMLEQISRISQQIGYYLHRASMRGGTLLSRELHPVAPLLDNLTSALNKVYQRKGVNISLDISPEISFVGEQNDFVEVMGNVLDNACKYCLEFVEISARQTDEHLYIVVEDDGPGIPLSKREVIFDRGQRVDTLRPGQGVGLAVAREITEQYEGKIVAGESMLGGARMEVIFGRQHSAPKDE

The other results are listed elsewhere or left out.

Variants of B1 are the subject of this assay. Nature of the assay: enrichment ratio after two sorts for PhoP signalling (ratio (wild type AVST 3.29)); higher = more functional. The note with it: with PhoP (E. coli).
PNIM: the enrichment ratio is at most 0.25.
As for YSQL, the enrichment ratio is at most 0.25.
The value for TPMV was at most 0.25; that for NEIM was at most 0.25.
As for WQDM, the figure is at most 0.25.
For TMPC, the enrichment ratio was at most 0.25.
As for ANIV, the figure is 13.7; as for QNAS, at most 0.25; as for SYNG, at most 0.25.
On to NYRT, for which the enrichment ratio is at most 0.25.
In the case of HNPP, the enrichment ratio was at most 0.25.
The value for WLVL was at most 0.25; that for FEWW was at most 0.25; that for VSFM was 0.396.
Turning to ANCK, the enrichment ratio was 6.46.
As for FRVS, the enrichment ratio is at most 0.25.
The value for NGIV was at most 0.25; that for LMNW was at most 0.25; that for NHIK was at most 0.25.
The value for TPWL was at most 0.25; that for LWTS was at most 0.25; that for RRRT was at most 0.25.
Turning to LEPV, the enrichment ratio is at most 0.25.
For the variant KCLI, the enrichment ratio was at most 0.25.
With DRLF, the enrichment ratio is at most 0.25.
With PFNA, the enrichment ratio was at most 0.25.
Take NSYT: the enrichment ratio is at most 0.25.
With VFIE, the enrichment ratio is at most 0.25.
HLIM: the enrichment ratio is at most 0.25.
The value for WTHH was at most 0.25; that for GFFD was at most 0.25.
The value for HIGW was at most 0.25.
As to RNAS, the enrichment ratio was at most 0.25.
With QMHI, the enrichment ratio was at most 0.25.
Take QLLV: the enrichment ratio is at most 0.25.
As for LGNG, the figure is at most 0.25.
Consider MWLL, for which the enrichment ratio was at most 0.25.
As for ERTA, the figure is at most 0.25.
The value for FCLI was 7.58.
RTQG: the enrichment ratio was at most 0.25.
With QRDH, the enrichment ratio was at most 0.25.
The value for GLAW was at most 0.25; that for NSPW was at most 0.25; that for AWMK was at most 0.25.
The value for FGAS was at most 0.25.
The value for KFFF was at most 0.25; that for DCCM was at most 0.25; that for GRGY was at most 0.25.
For the variant ITWL, the enrichment ratio is at most 0.25.
The value for YTYR was at most 0.25; that for AFHP was at most 0.25; that for KHLA was at most 0.25.
The value for KSYM was at most 0.25; that for SMMT was 5.23.
As for LAIR, the figure is at most 0.25.
Regarding NSSC, the enrichment ratio was at most 0.25.
Take HHET: the enrichment ratio was at most 0.25.
As for KSYK, the figure is at most 0.25.
As for RWCC, the figure is at most 0.25; as for KKRT, at most 0.25; as for PIPV, at most 0.25.
As for RKSM, the figure is at most 0.25; as for MCAM, 12.2.
For KNGD, the enrichment ratio was at most 0.25.
As for FMST, the figure is at most 0.25; as for NPRR, at most 0.25; as for HGIK, at most 0.25.
As for WRMS, the figure is at most 0.25; as for DRWV, at most 0.25; as for RPGF, at most 0.25.
For the variant SGYT, the enrichment ratio is at most 0.25.
As for SPCC, the enrichment ratio was at most 0.25.
The value for TKCA was 1.64; that for VIHN was at most 0.25.
Take DLVA: the enrichment ratio was at most 0.25.
Turning to MQDT, the enrichment ratio is at most 0.25.
For SHID, the enrichment ratio was at most 0.25.
As for GEIL, the enrichment ratio was determined as 3.53.
The value for HSYD was at most 0.25; that for LQHD was at most 0.25; that for MMGA was at most 0.25.
As for IEQS, the figure is at most 0.25; as for WPYS, at most 0.25.
As to HRRQ, the enrichment ratio is at most 0.25.
The value for GKNK was at most 0.25.
As for MIMW, the figure is at most 0.25; as for GSCC, 8.33; as for SRPV, at most 0.25.
The value for PKSF was at most 0.25.
Turning to IYAK, the enrichment ratio is at most 0.25.
GSSG: the enrichment ratio worked out at 0.346.
As for KDKG, the enrichment ratio was at most 0.25.
As for FLML, the figure is 0.929.
As for ITSI, the figure is at most 0.25; as for ICFF, at most 0.25.
The value for KSTE was at most 0.25; that for WMFS was at most 0.25.
On to PDMF, for which the enrichment ratio was at most 0.25.
The value for NQTS was at most 0.25.
MAHL: the enrichment ratio came to 7.58.
LTVF: the enrichment ratio was at most 0.25.
In the case of MNTQ, the enrichment ratio is at most 0.25.
As for KAGN, the figure is at most 0.25.
As for KRVG, the figure is at most 0.25; as for DLLN, at most 0.25; as for NEST, 3.45.
Consider PAPL, for which the enrichment ratio is at most 0.25.
As for ISFT, the figure is at most 0.25.
VIIV: the enrichment ratio was at most 0.25.
As for LVRS, the figure is at most 0.25; as for KHHI, at most 0.25.
As for TKNE, the enrichment ratio is at most 0.25.
The value for QRFI was at most 0.25; that for VNGS was at most 0.25; that for RPYG was at most 0.25.
For the variant KDPE, the enrichment ratio was at most 0.25.
As for TMHR, the figure is at most 0.25; as for LCPP, at most 0.25.
As for WAYG, the figure is at most 0.25; as for ESDL, at most 0.25; as for PSFY, at most 0.25.
The value for AVSS was 7.83; that for KIEQ was at most 0.25; that for DIDF was at most 0.25.
With FRGV, the enrichment ratio was at most 0.25.
Regarding HNFA, the enrichment ratio is at most 0.25.
As for VEFR, the figure is at most 0.25; as for AQVS, 14.
The value for FFQA was at most 0.25; that for NVSV was at most 0.25; that for TELG was 27.4.
For QELC, the enrichment ratio was at most 0.25.
For the variant TWEH, the enrichment ratio is at most 0.25.
Consider YPPI, for which the enrichment ratio is at most 0.25.
The value for KSEV was at most 0.25; that for TKVK was at most 0.25; that for PCYI was at most 0.25.
As to ETIP, the enrichment ratio was at most 0.25.
Take HIDS: the enrichment ratio was at most 0.25.
As for MLDH, the figure is at most 0.25.
The value for VIVL was at most 0.25; that for NGHL was at most 0.25.
The value for GHSY was at most 0.25; that for FHTG was at most 0.25; that for ETPS was at most 0.25.
With WELS, the enrichment ratio is at most 0.25.
The value for YDMW was at most 0.25.
As for LQVI, the figure is at most 0.25; as for HPHN, at most 0.25; as for TCCN, 17.6.
For DHSA, the enrichment ratio was at most 0.25.
For the variant YNCT, the enrichment ratio was at most 0.25.
As for QHAI, the figure is at most 0.25; as for PWNF, at most 0.25.
RIKN: the enrichment ratio was at most 0.25.
The value for FCEL was at most 0.25; that for KTHT was at most 0.25; that for DYLC was at most 0.25.
As for DFCK, the figure is at most 0.25.
Turning to DDCY, the enrichment ratio was at most 0.25.
As for KSPW, the figure is at most 0.25; as for YFRP, at most 0.25.
As for LGRS, the figure is at most 0.25.
Consider YFFS, for which the enrichment ratio is at most 0.25.
With YRFV, the enrichment ratio is at most 0.25.
The value for TWCY was at most 0.25; that for QLLI was at most 0.25; that for SVRI was at most 0.25.
Turning to KQMY, the enrichment ratio was at most 0.25.
As for QYRG, the figure is at most 0.25; as for GIDI, at most 0.25; as for RFVA, at most 0.25.
As for LRVH, the enrichment ratio was at most 0.25.
The value for SYLD was at most 0.25; that for KASD was at most 0.25.
The value for HPSP was at most 0.25.
As to LWWP, the enrichment ratio is at most 0.25.
The value for YPLQ was at most 0.25.
As for YPSD, the figure is at most 0.25.
As for WRFY, the figure is at most 0.25.
With ACSI, the enrichment ratio was found to be 9.58.
For the variant HWVE, the enrichment ratio was at most 0.25.
Regarding HNPI, the enrichment ratio was at most 0.25.
For PVIT, the enrichment ratio is at most 0.25.
For the variant RSNN, the enrichment ratio was at most 0.25.
Regarding LSGF, the enrichment ratio was at most 0.25.
The value for WIMP was at most 0.25.
The value for AHEG was at most 0.25.
For TIMF, the enrichment ratio is at most 0.25.
The value for EKGI was at most 0.25.
On to EMSR, for which the enrichment ratio was at most 0.25.
As for SSQA, the figure is 0.476.
Regarding NDVP, the enrichment ratio is at most 0.25.
As for AMKW, the figure is at most 0.25.
Regarding EMFY, the enrichment ratio is at most 0.25.

Values taken from a collection of fitness landscapes (doi:10.1126/science.1257360).
